{
  "source": "PubChem BioAssay AID686978",
  "about": "(National Center for Advancing Translational Sciences (NCATS), 2013)",
  "note": "The whole screen tested about 420,000 compounds, of which about 64,000 (15%) were called active. This list was built around the results that the source calls inconclusive (neither active nor inactive); the mix of calls is not that of the screen. Calls follow the shape of the dose curve; as a rule, active = well fitted inhibition curve with a large enough effect; inconclusive = small, poorly fitted or top-dose-only effect; inactive = flat fitted curve, though single readings scatter. No potency is given beside an inconclusive call; the fits are too rough. % is scaled to controls: 0 for no effect and ±100 for the full control effect; potency is read from the fitted curve at half-maximal effect; tags tell the direction and shape of the fitted curve.",
  "data": [
    {"assay": "qHTS for Inhibitors of human tyrosyl-DNA phosphodiesterase 1 (TDP1): qHTS in cells in absence of CPT; also: nearly all actives have a fitted effect of over 55% in size", "conditions": "DT40 Tdp1-/- hTDP1 cells, no CPT, ATP luminescence, 48 h; activity change, negative = growth inhibition: at 46.2 µM (top of the series) unless noted", "procedure,_shortened": "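Luminescent ATP content (CellTiter-Glo) served as the growth readout. Knockout chicken DT40 cells expressing human TDP1 were exposed to compounds without camptothecin for a minimum 48 hr at 37 °C.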", "values": [
      {"compound": "COc1cc2ncnc(NCc3ccc(F)cc3)c2cc1OC", "Potency": "inconclusive [inhibitor, partial curve]"},
      {"compound": "O=C(Cc1ccccc1)NCCS(=O)(=O)N1CCN(c2cccc(Cl)c2)CC1", "Potency": "inconclusive [inhibitor, single point]"},
      {"compound": "Cc1c(C(=O)NCc2ccc3c(c2)OCO3)oc2ccc(S(=O)(=O)N3CCCC3)cc12", "Potency": "inconclusive [inhibitor, single point]"},
      {"compound": "O=C(Nc1cc(Sc2nc3ccccc3s2)cc([N+](=O)[O-])c1)c1ccccc1", "Potency": "active: 16.4 µM"},
      {"compound": "O=C1OCC2=C1C(c1ccc3c(c1)OCO3)c1cc3c(cc1O2)OCO3", "note": "(stereo not drawn)", "Potency": "active: 2.31 µM"},
      {"compound": "CC1(OC(=O)C2CCCC2)C(=O)C=C2C=C(c3ccsc3)N(C3CCCCC3)C=C2C1=O", "note": "(stereo not drawn)", "Potency": "active: 20.6 µM"},
      {"compound": "CC(=NC1CCCCC1)C1=C(O)c2ccccc2C1=O", "Potency": "inconclusive [inhibitor, partial curve, poor fit]"},
      {"compound": "COc1ccc(-c2c(C#Cc3ccsc3)c3ccccc3n2C)cc1", "Potency": "active: 23.1 µM"},
      {"compound": "Cc1ccc(O)c(NC(=O)CCS(=O)(=O)c2nc(-c3ccc4c(c3)OCO4)cc(C(F)(F)F)n2)c1", "Potency": "active: 11.6 µM"},
      {"compound": "CCO[C@H]1OC(C(=O)O)=C[C@@H](C2CCCCC2)[C@@H]1CCCO", "activity change, negative = growth inhibition": "inactive: 4.26%"},
      {"compound": "CN(C)CC1CCC/C(=C/c2ccc(Cl)cc2)C1=O", "note": "(stereo not drawn)", "Potency": "active: 0.58 µM"},
      {"compound": "CN(C(=O)c1ccc2c(c1)OCO2)C1(C(=O)NC2CCCCC2)CCCCC1", "activity change, negative = growth inhibition": "inactive: -15.2%"},
      {"compound": "CN(C)Cc1c[nH]c2nccnc12", "activity change, negative = growth inhibition": "inactive: -2.43%"},
      {"compound": "CC#CCN1c2ccccc2[C@]23C[C@@H](C(=O)OC)N(C(C)=O)C2=NC(C(=O)OC)=C(C(=O)OC)[C@H]13", "activity change, negative = growth inhibition": "inactive: -15.8%"},
      {"compound": "CCc1ccc(CNC(=O)CCn2c(=O)c3cccn3c3ccc(F)cc32)cc1", "Potency": "inconclusive [inhibitor, single point]"},
      {"compound": "Cc1ccc(-c2noc(-c3ccccc3C(=O)NCC3CCCO3)n2)cc1", "note": "(stereo not drawn)", "Potency": "inconclusive [inhibitor, single point]"},
      {"compound": "CC(=O)N1CCN(C(=S)Nc2ccc(Oc3ccccc3)cc2)CC1", "Potency": "inconclusive [inhibitor, single point]"},
      {"compound": "CC(=O)N1c2ccccc2N2C(c3c(C)c(C)cc(C)c3C)=NON12", "activity change, negative = growth inhibition": "inactive: -25.9%"},
      {"compound": "COc1ccc(C2=NOC3(CC(=O)N(c4ccc(Cl)cc4)C3=O)C2)c(OC)c1", "note": "(stereo not drawn)", "activity change, negative = growth inhibition": "inactive: -5.65%"},
      {"compound": "Cc1ccc(SCCNC(=S)Nc2ccc(C)c(C)c2)cc1", "Potency": "inconclusive [inhibitor, single point]"},
      {"compound": "Cc1ccc(-n2nnc(-c3nsc(NC(=O)c4ccc(C)c(C)c4)n3)c2C)cc1", "Potency": "active: 13 µM"},
      {"compound": "NC(=O)c1oc2ccccc2c1NC(=O)c1nc2ccccc2s1", "activity change, negative = growth inhibition": "inactive: -18%"},
      {"compound": "CCOc1ccccc1NC(=O)COc1ccc(S(=O)(=O)NC2CCCCC2)cc1", "Potency": "inconclusive [inhibitor, single point]"},
      {"compound": "Cc1ccc(C(=O)NCCc2csc(-c3cccnc3)n2)cc1", "Potency": "inconclusive [inhibitor, partial curve]"},
      {"compound": "Cn1c(=O)c2cc(S(=O)(=O)NC(C(=O)Nc3cccc(F)c3)c3ccccc3)ccc2n(C)c1=O", "note": "(stereo not drawn)", "Potency": "inconclusive [inhibitor, single point]"},
      {"compound": "O=C(Nc1ccc(F)c(F)c1)C1CCCN1S(=O)(=O)c1cccc2nsnc12", "note": "(stereo not drawn)", "Potency": "inconclusive [inhibitor, single point]"},
      {"compound": "O=C(CSc1n[nH]c(-c2cccs2)n1)NCc1ccc2c(c1)OCO2", "activity change, negative = growth inhibition": "inactive: -13.6%"},
      {"compound": "Cc1ccc(C(=O)N/C(=C\\c2ccc(C(C)C)cc2)C(=O)NCCCN2CCOCC2)cc1", "Potency": "inconclusive [inhibitor, single point]"},
      {"compound": "Cc1ccc(S(=O)(=O)NCCC(=O)OCC(=O)N(C)c2ccccc2)cc1", "Potency": "inconclusive [inhibitor, partial curve]"},
      {"compound": "COc1cc(C(=O)OCC(=O)NC2CCCCCC2)ccc1OCC(C)C", "Potency": "active: 3.26 µM"},
      {"compound": "CCN(CC)c1ccc(/C=N/NC(=O)CC(C)C)cc1", "Potency": "inconclusive [inhibitor, single point]"},
      {"compound": "CCOc1ccccc1CNC(=O)c1cc(-c2ccc(C)c(C)c2)nc2ccccc12", "Potency": "inconclusive [inhibitor, single point]"},
      {"compound": "C/C(=N\\OC(=O)c1c(-c2ccccc2Cl)noc1C)c1ccncc1", "activity change, negative = growth inhibition": "inactive: -4.36%"},
      {"compound": "COc1cccc(C(=O)c2ccccc2NC(C)=O)c1", "Potency": "inconclusive [inhibitor, single point]"},
      {"compound": "CCOCCCN(C(=O)Cn1nnc(-c2ccc(C)o2)n1)C(C(=O)NC1CCCC1)c1ccc(C)o1", "note": "(stereo not drawn)", "Potency": "inconclusive [inhibitor, partial curve]"},
      {"compound": "COC(=O)c1c(NC(=O)/C=C/C(=O)O)sc(C)c1-c1ccc(C)c(C)c1", "Potency": "inconclusive [inhibitor, single point]"},
      {"compound": "Cc1nc(NCC(=O)c2c[nH]c3ccccc23)sc1C", "Potency": "inconclusive [inhibitor, partial curve]"},
      {"compound": "Cc1cc(NC(=O)CSc2nnc(-c3ccoc3C)o2)no1", "Potency": "inconclusive [inhibitor, single point]"},
      {"compound": "CS(=O)(=O)N1CCN(c2nnc(-c3ccccc3)c3ccccc23)CC1", "activity change, negative = growth inhibition": "inactive: -23.1%"},
      {"compound": "Cc1ccc(CNC(=O)C(=O)NCC(c2cccnc2)N2CCN(c3ccccc3F)CC2)cc1", "note": "(stereo not drawn)", "Potency": "active: 5.8 µM"},
      {"compound": "Clc1nn2cnnc2c2ccccc12", "activity change, negative = growth inhibition": "inactive: -14.2%"},
      {"compound": "CCC(=O)NC(c1ccc([N+](=O)[O-])cc1)c1c(O)ccc2ccccc12", "note": "(stereo not drawn)", "Potency": "inconclusive [inhibitor, single point]"},
      {"compound": "CCCS(=O)(=O)N1CCC(n2c(C(F)(F)F)nc3cccnc32)CC1", "Potency": "active: 5.17 µM"},
      {"compound": "Cc1nn(C)c(C)c1CN(Cc1nc(CCC(C)C)no1)C(C)C", "Potency": "active: 0.58 µM"},
      {"compound": "OC1CCN(Cc2cccc(Oc3ccccc3)c2)CC1", "Potency": "inconclusive [inhibitor, partial curve, poor fit]"},
      {"compound": "O=C(NC1CCCC1)C1C(c2ccccc2)=Nc2ccccc2N1C(=O)c1ccc(C(F)(F)F)cc1", "note": "(stereo not drawn)", "activity change, negative = growth inhibition": "inactive: 10.8%"},
      {"compound": "O=C(CN1CCN(S(=O)(=O)c2ccc(Br)cc2)CC1)N/N=C/c1ccco1", "activity change, negative = growth inhibition": "inactive: -3.27%"},
      {"compound": "CC(C)[C@H](NC(=O)c1ccc(Cl)c([N+](=O)[O-])c1)C(=O)NCc1ccc(Cl)cc1Cl", "Potency": "inconclusive [inhibitor, partial curve]"},
      {"compound": "O=C(c1ccc(F)cc1)C1CCN(Cc2cn[nH]c2-c2ccc(F)cc2)CC1", "Potency": "inconclusive [inhibitor, single point]"},
      {"compound": "COc1ccc(C(c2nnnn2C2CCCC2)N2CCC(C)CC2)c(OC)c1", "note": "(stereo not drawn)", "Potency": "active: 20.6 µM"},
      {"compound": "Cc1oc(-c2cc(F)cc(F)c2)nc1CN1CCN(C(=O)c2ccco2)CC1", "Potency": "inconclusive [inhibitor, single point]"},
      {"compound": "CCCN(CCC)S(=O)(=O)c1ccc(NC(=O)c2cc(C(=O)OC)cc([N+](=O)[O-])c2)cc1", "Potency": "active: 25.9 µM"},
      {"compound": "C(=N\\Nc1nc2ccccc2[nH]1)/c1cccs1", "Potency": "inconclusive [inhibitor, single point]"},
      {"compound": "CCCCc1nnc(NC(=O)CN2C(=O)c3ccccc3C2=O)s1", "activity change, negative = growth inhibition": "inactive: 0.575%"},
      {"compound": "CCc1ccc(C2NC(=O)c3[nH]nc(-c4cccc(OC)c4)c32)cc1", "note": "(stereo not drawn)", "Potency": "inconclusive [inhibitor, single point]"},
      {"compound": "O=C(NCc1ccco1)C1CC(c2cc(C(F)(F)F)cc(C(F)(F)F)c2)=NO1", "note": "(stereo not drawn)", "Potency": "active: 2.31 µM"},
      {"compound": "O=C(COc1ccc2ccccc2c1)NC1=NCCS1", "activity change, negative = growth inhibition": "inactive: -27.8%"},
      {"compound": "CCOC(=O)N1CCN(C(=O)c2ccc(Oc3ccc([N+](=O)[O-])cc3)cc2)CC1", "Potency": "active: 23.1 µM"},
      {"compound": "O=C(COC(=O)c1ccc2c(c1)OCO2)Nc1ccccc1F", "activity change, negative = growth inhibition": "inactive: -12.6%"},
      {"compound": "COc1ccc(CNC(=O)C2Cc3c(-c4ccc5c(c4)OCO5)ccnc3O2)cc1OC", "note": "(stereo not drawn)", "Potency": "active: 11.6 µM"},
      {"compound": "Cc1sc2ncnc(SCC(=O)NC3CCCC3)c2c1C", "Potency": "inconclusive [inhibitor, single point]"},
      {"compound": "Cc1ccc(-c2nnnn2-c2ccc(C)cc2)cc1", "Potency": "inconclusive [inhibitor, single point]"},
      {"compound": "CC(C)(C)c1ccc(CN2N=C(/C=C/c3ccccc3)CCC2=O)cc1", "activity change, negative = growth inhibition": "inactive: 1.81%"},
      {"compound": "CSc1ccc(-c2nc(CN3CCCCC3c3cccnc3)c(C)o2)cc1", "note": "(stereo not drawn)", "Potency": "inconclusive [inhibitor, single point]"},
      {"compound": "CC1(C)OC(=O)C2=C(C[C@@H](CCOCc3ccccc3)O[C@@H]2c2ccc(F)cc2)O1", "Potency": "inconclusive [inhibitor, single point]"},
      {"compound": "CCCn1c(CN2CCN(C(=O)c3ccco3)CC2)nc2cc(S(=O)(=O)N(C)C)ccc21", "Potency": "inconclusive [inhibitor, single point]"},
      {"compound": "COc1ccc(NC(=O)CCN2CCN(c3ccccc3F)CC2)c(OC)c1", "activity change, negative = growth inhibition": "inactive: -16.7%"},
      {"compound": "COc1ccc(C2C(C(=O)c3cccs3)=C(O)C(=O)N2CCN2CCOCC2)c(OC)c1", "note": "(stereo not drawn)", "activity change, negative = growth inhibition": "inactive: 13.7%"},
      {"compound": "O=C(C1CCN(S(=O)(=O)c2cccnc2)CC1)N1CCN(c2ccccc2Cl)CC1", "Potency": "active: 20.6 µM"},
      {"compound": "CC(=O)c1ccc(N2CCN(C(=O)c3cccs3)CC2)c(F)c1", "Potency": "inconclusive [inhibitor, single point]"},
      {"compound": "Cc1ccc2[nH]c(=O)c(CN(Cc3ccco3)S(=O)(=O)c3c(C)ccc4nsnc34)cc2c1", "Potency": "inconclusive [inhibitor, single point]"},
      {"compound": "Cc1nn(C)cc1S(=O)(=O)Nc1ccc(F)c(F)c1", "activity change, negative = growth inhibition": "inactive: 1.88%"},
      {"compound": "COc1ccccc1CC(=O)Nc1ccc2nc(N3CCC(C)CC3)cc(C)c2c1", "Potency": "inconclusive [inhibitor, partial curve]"}
    ]}
  ]
}
